Whole data set: some 33,000 sequences, median “E-score (dimensionless, -0.5 to 0.5)” near -0.058, cut for the highest 2% near 0.35. The list shows a part of the results.
Test system: MvaT
Assay: PBM 8-mer E-score (mean of HK and ME arrays) (E-score (dimensionless, -0.5 to 0.5)); higher = stronger relative binding preference; most listed sequences are background and not binding sites
Method in brief: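 Full-length P. aeruginosa MvaT, with glutathione S-transferase fused to its N-terminus (cloned into pTH6838 by isothermal assembly), was tested by protein binding microarray using a previously described protocol. Two universal double-stranded 60-mer arrays (ME and HK) were used, each with a constant 25-mer primer region and a variable 35-mer region covering all 8-mers. The rank-based 8-mer E-score (-0.5 to 0.5) is the mean of the two arrays, parsed with a custom Python script.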

| Sequence | PBM 8-mer E-score |
| --- | --- |
| CCTTAGAA | -0.00735 |
| GCCTCGGA | -0.221 |
| ACACACAT | 0.0835 |
| GACTCTCA | -0.237 |
| CAGTTGAG | 0.00623 |
| GGTTCTTA | -0.0316 |
| AGATCACT | -0.17 |
| GCTGCGAA | -0.0778 |
| CGACACAA | 0.0853 |
| ACACAGCC | 0.0184 |
| AGGTCGTC | -0.17 |
| AATCACAT | 0.146 |
| AAGTACTT | 0.41 |
| CAGATAGC | -0.122 |
| GGCCGGGA | -0.246 |
| TACGTCTA | -0.0551 |
| TGTTAACA | 0.33 |
| ACTTTTAG | 0.112 |
| CATCTAGA | 0.0186 |
| ATGGTCGC | -0.162 |
| CATTGGCC | -0.265 |
| GGATATAA | 0.307 |
| CCTACCCA | -0.126 |
| GCTAGGAC | -0.282 |
| TCCCTCAA | -0.062 |

| Sequence | PBM 8-mer E-score |
| --- | --- |
| ACGTGTCG | -0.24 |
| GATTCGGA | -0.0859 |
| CCATGATA | 0.0911 |
| AGAGACCT | -0.199 |
| ATACTCAG | 0.117 |
| ACATAAGC | 0.247 |
| GTGCACCA | -0.137 |
| ATGGTCTC | -0.117 |
| ATCGAGCA | -0.175 |
| GGAGCCAC | -0.325 |
| ACTATTAT | 0.425 |
| ACTGGTTC | -0.122 |
| CCGCTGCG | -0.342 |
| CGCAGGCA | -0.137 |
| ATACGTAA | 0.223 |
| CCAACCAG | -0.21 |
| CAAATGGG | -0.111 |
| CACGCCGA | -0.0648 |
| GGGCACCA | -0.15 |
| CGGTCGCA | -0.119 |
| GTTCCACA | -0.0268 |
| CCGACACG | -0.209 |
| ATGGGTGA | -0.0345 |
| CTCTCTAC | -0.0519 |
| CCGGCGAA | -0.244 |

| Sequence | PBM 8-mer E-score |
| --- | --- |
| CGGTCCCA | -0.0584 |
| AATCCGGG | -0.0785 |
| ACCCTGTC | -0.211 |
| AGTAAGTA | 0.273 |
| CGGCTACA | -0.125 |
| GCTTTTCA | 0.0405 |
| AGGCACTC | -0.205 |
| CTCTCCCC | -0.109 |
| CGTCACGA | -0.187 |
| GTCACGTA | -0.086 |
| CTCGCGAG | -0.156 |
| AATGTTGT | 0.204 |
| AATAGATA | 0.228 |
| ATTCTTAG | 0.213 |
| ACAAACTA | 0.337 |
| GGCATCTA | -0.0751 |
| GGACGTCA | -0.268 |
| AATTCTCG | 0.0899 |
| CCCCCGTC | -0.241 |
| ACACCCTG | -0.0696 |
| GGCATGAA | 0.02 |
| GATTAACC | 0.0145 |
| AATGCAAA | 0.15 |
| AATGTAAT | 0.365 |
| AGAACGCC | -0.0907 |

| Sequence | PBM 8-mer E-score |
| --- | --- |
| CCGCGTCC | -0.275 |
| TCTGGCAA | 0.0132 |
| TATACCAA | 0.246 |
| AGTTCTCA | -0.0217 |
| CGGCGAAG | -0.222 |
| GTATTGAA | 0.23 |
| AAAAAATA | 0.331 |
| AGGTTATG | 0.101 |
| CGCGCGTA | -0.0215 |
| AACAAATC | 0.123 |
| TGTCTCAA | 0.166 |
| GTCTACCA | -0.0623 |
| GCTATCAA | 0.0148 |
| GAAGCTAA | -0.139 |
| AGCTCGAT | -0.146 |
| GATCTGGA | -0.109 |
| ACAGTATA | 0.265 |
| GCTACTCC | -0.197 |
| CTGTAAAA | 0.125 |
| GGAATCCA | -0.0837 |
| ACGATTTA | 0.169 |
| ACGTATGA | -0.1 |
| GGTAACGA | 0.0405 |
| CGTTCCCC | -0.106 |
| TGAATGCA | 0.0146 |

| Sequence | PBM 8-mer E-score |
| --- | --- |
| CTACGGCC | -0.193 |
| CGGGGCAC | -0.155 |
| CCGGAATC | -0.00886 |
| ACGAGACT | 0.0154 |
| CTAGCAAA | 0.059 |
| AAGGAGAT | -0.0816 |
| AAGCCACT | -0.228 |
| ACCCCTCC | -0.316 |
| AAGCAGAA | 0.113 |
| AATTGGGC | 0.165 |
| CCTAGTGC | -0.184 |
| ACCCTACA | -0.122 |
| CCGCAGGC | -0.268 |
| CATTCGAC | -0.083 |
| AACGTCTG | -0.16 |
| AGACAGTA | 0.0869 |
| AGGGGTAG | -0.2 |
| GATTTTCA | -0.0348 |
| GAAAGCTA | -0.124 |
| TCCACAAA | 0.0967 |
| ACTCAACT | -0.037 |
| AATCCTAA | 0.154 |
| AATATCAT | 0.294 |
| TGCGACAA | 0.0724 |
| GAAGAAGC | -0.159 |

| Sequence | PBM 8-mer E-score |
| --- | --- |
| ATGGTACA | 0.0704 |
| AGGGGTTG | -0.0976 |
| ACCCGAAC | -0.133 |
| GCTACTAA | 0.111 |
| ATAGCATA | 0.23 |
| GCCGGGGA | -0.225 |
| GGAGCCAA | -0.274 |
| AACGCGGA | -0.163 |
| CGCCCCCA | -0.325 |
| ATTAGGGG | -0.0612 |
| CCACGGGA | -0.288 |
| GATTATCC | 0.209 |
| CACCCACA | -0.0261 |
| AGGTACAC | -0.147 |
| TAGACCCA | -0.0766 |
| CTCTAGCA | -0.253 |
| AATCTTGG | 0.0632 |
| CGGCCGTA | -0.1 |
| ACTGTAGC | 0.11 |
| AAAAAAAA | 0.271 |
| AGGAAGGG | -0.309 |
| CAGTGAGC | -0.31 |
| TCCTCCCA | -0.213 |
| CCGCCAGG | -0.33 |
| CTCTAAAC | 0.00124 |

| Sequence | PBM 8-mer E-score |
| --- | --- |
| GCGAGCAA | -0.0454 |
| CTGGCCAG | -0.11 |
| GGATGATA | 0.0561 |
| AACTCTAA | 0.25 |
| TCACCAAA | 0.0788 |
| CTTTTAGC | -0.0328 |
| CGTTGAAA | 0.0238 |
| ACGAGATG | -0.173 |
| ATGCGATG | -0.0557 |
| GCGTAAAA | 0.223 |
| GCTCTCTA | -0.153 |
| CATTAGCC | -0.0329 |
| AGCCGACC | -0.118 |
| CCACTGAA | -0.103 |
| CAGGCTAA | -0.0463 |
| CGAAAACA | 0.176 |
| GTTACCTA | 0.00931 |
| AATTTCCC | 0.207 |
| AGACCGGA | -0.0392 |
| ATCCCCTA | -0.253 |
| AACCGGTC | -0.0708 |
| CTTGAAAA | 0.049 |
| AGATCCGA | -0.132 |
| CGAGAGCA | -0.106 |
| ATTTCCGC | 0.0484 |

| Sequence | PBM 8-mer E-score |
| --- | --- |
| ACGCTCAA | -0.0286 |
| CGCGCCCG | -0.173 |
| AGCACAAG | -0.0248 |
| CTGCCACA | -0.0885 |
| CGCAAATC | -0.0327 |
| AAGCCTGT | -0.0974 |
| CGACTGTC | -0.219 |
| CGCCGCAC | -0.196 |
| AAATAGGT | 0.229 |
| GCGGACGA | -0.18 |
| ACCTGAAG | -0.105 |
| AGCGCGTA | 0.0114 |
| AGTAAACT | 0.14 |
| AATGTTCT | 0.168 |
| AGAGCATG | -0.164 |
| ATCCCGAA | 0.0538 |
| TAAATTGA | 0.321 |
| TGCATACA | 0.1 |
| CGGTACTA | -0.0157 |
| GTAGTCTA | 0.0473 |
| CTACTAAG | -0.00927 |
| CCGCAACC | -0.0789 |
| AGAGGGAA | -0.204 |
| AATCGTTG | -0.0166 |
| CGGCAGAG | -0.231 |

| Sequence | PBM 8-mer E-score |
| --- | --- |
| CACTGAGA | 0.0457 |
| AAATGAGA | -0.00699 |
| ACACATTC | 0.036 |
| AAGTCATG | -0.1 |
| AACCGGTT | -0.0432 |
| AATGCCAT | 0.0557 |
| TCCGCCGA | -0.148 |
| AGAATTAA | 0.301 |
| AAGCAGCC | -0.138 |
| GGAAACGA | -0.0256 |
| GCAGGTCA | -0.0436 |
| CAGGTCAG | -0.167 |
| ACACAGAA | 0.0462 |
| AACCGGGT | -0.143 |
| AAGAACCT | -0.0904 |
| CCCGAGCG | -0.237 |
| ACGGCAAC | -0.107 |
| GATTATGC | 0.148 |
| GATATAAA | 0.344 |
